The text below walks through data of the supplement of paper PMC11417369.

± gives the standard deviation of the averaged measurements. Some of the results follow.

The subject of the assay is PfAP2-I AP2 domain 3 (GST-tagged). Description: gcPBM binding intensity (ln(normalized median fluorescence intensity)); higher = stronger DNA binding. Summed up: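 After 1 h on an Agilent 4 × 180k array of primer-extended double-stranded 36-bp intergenic genomic probes and negative controls, bound GST-tagged P. falciparum DNA-binding domains were detected with Alexa488 anti-GST antibody and scanned at 488 nm. The domains had been expressed in E. coli, and binding took place in 1× PBS with 1% milk, 0.2 mg/ml BSA, 0.5% salmon testes DNA and 0.03% Triton X-100. Binding intensity is the highest Masliner-normalised natural-log median intensity across replicate spots of either probe orientation.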
For the sequence “CTCAATATTATTACTACACACAAATTAAAATTTTCC [CACACA_site4203]”, the “gcPBM binding intensity (ln)” value was found to be 7.92 ± 0.47.
The figure for “AGAGAATAAATATAAAGTACATATATAAATATATAT [XGTACX_site5055]” is 7.71 ± 0.47.
To “GTATATAAAAATTCATGTACATATTATTATTTTTAA [XGTACX_site658]” belongs 8.07 ± 0.42.
The figure for “ATGTTATAAATCTTAATATATATATGCAAAAGAGAA [XGTACX_negctrl_site521]” is 8.75 ± 0.75.
In the case of “ACATATACAAAACACACACACAACGTTTTAATAAAT [CACACA_site1979]”, the “gcPBM binding intensity (ln)” value was 8.17 ± 0.35.
As for “TTATAACTTTTGAGCACACACAAGCATATAAATATA [CACACA_site6933]”, the “gcPBM binding intensity (ln)” value was 8.24 ± 0.18.
To “TTGTACATCTTTTGCACACGTAATGTTATTATAATA [CACACA_site1258]” belongs 9.45 ± 0.014; to “AAATACTGTAAAAAAGCATGCCACTAATAATAATTA [TGCATGCA_site759]”, 7.62 ± 0.67; to TCATTTTTTTGTTTGGTGCGACTTGAAAATTTGATT, 8.43 ± 0.42.
To “ATATAGATTCGACACACACACAAAAAAAAAAAAAAA [CACACA_site7677]” belongs 8.03 ± 0.37; to “GTACCTATTTCATACACACACACACGCAAACAAACA [CACACA_site6590]”, 8.6 ± 0.43; to “TGGTATATTATTTTTTGTACACATAAATGAAACATT [XGTACX_site5345]”, 8.04 ± 0.22.
As for “CGTATATCACCAACTAGTACATATAAATAAATAAAT [XGTACX_site8837]”, the “gcPBM binding intensity (ln)” value was found to be 7.92 ± 0.5.
Take “ATATATATAATAAACACACACATATACATAGATGTA [CACACA_site5841]”: the “gcPBM binding intensity (ln)” value is 8.28 ± 0.52.
“ATATATATATATATATGTACATATTATTATTTTGAT [XGTACX_site4752]”: the “gcPBM binding intensity (ln)” value was determined as 9.22 ± 0.49.
To “GTATATGTACTATACGCACACACACCCACATATATA [CACACA_site9062]” belongs 8.57 ± 0.38.
To “ATATATATTATATGCACACTAATAAGACTATTTAAA [CACACA_site3554]” belongs 9.63 ± 0.22.
To “TTATAATATTCATAAGGTACAGTTTATATATGTTAT [XGTACX_site8442]” belongs 7.76 ± 0.49; to “TTGAGTTGTATAAAAAGTACAAGGTTTTAACTAAAT [XGTACX_site1447]”, 7.93 ± 0.54; to “AATAATCATGATCAAAGTACGTATGATTAAAAAAAA [XGTACX_site4916]”, 7.78 ± 0.71.
Turning to “TATGACCTTAGTAATTGTACACAAACATATTAATAT [XGTACX_site3340]”, the “gcPBM binding intensity (ln)” value was determined as 7.84 ± 0.5.
In the case of “GAGTATATGATATATATATATATATAAAAAAAAAAA [GTGCAC_negctrl_site99]”, the “gcPBM binding intensity (ln)” value amounted to 7.92 ± 0.58.
On to “TATATGTAAATGGACACACACATATATATATATATA [CACACA_site3659]”, for which the “gcPBM binding intensity (ln)” value is 9.33 ± 0.47.
To “AAAAGTAAAAAAAAAAAAAGTAAAAAAAAAAAAAAA [CACACA_negctrl_site389]” belongs 7.99 ± 0.97; to “TTACAGATATTTATCTGTACATATATTTAAAAATAT [XGTACX_site7431]”, 7.59 ± 0.34; to “TAATTTTTTTAAAAGCGTACATTTAAAAAAAAATAT [XGTACX_site2736]”, 7.89 ± 0.12.
To “TTTTTAAATTCTTTAATATGTTTTATATATCAAAAT [CACACA_negctrl_site75]” belongs 7.45 ± 0.36.
For “TCTTATCATTTTAAATCACACACATATATATATATA [CACACA_site8925]”, the “gcPBM binding intensity (ln)” value was determined as 9.32 ± 0.44.
The figure for “TTATTTTATTTAGGGTGTACCCAATTTTTCCATATG [XGTACX_site4957]” is 7.74 ± 0.43; for “AAAAATTTTTTACATCGTACAGATATATATAATAAA [XGTACX_site3331]” it is 8.09 ± 0.46.
“ATTTATATTTATAAATGTACACATATATATTTCATT [XGTACX_site2723]”: the “gcPBM binding intensity (ln)” value is 7.79 ± 0.45.
For “TCCTATAATTTTTTAATCAAAATATTTTATCCTTTG [CACACA_negctrl_site793]”, the “gcPBM binding intensity (ln)” value was determined as 7.58 ± 0.73.
To “TGTACATATATATATATATATGTTACTGAAATAAAA [CACACA_negctrl_site1658]” belongs 8.12 ± 0.23; to “AAGAATAACTTTTATACATGCAGCATAATATATTGT [TGCATGCA_site605]”, 8.01 ± 0.7.
To “CTTTTATAATTCATATGTACTTATTTTTAACATAGG [XGTACX_site7808]” belongs 7.96 ± 0.4; to “TCTTTTAACACATGTGATATTATTTAATAACAATAA [CACACA_negctrl_site339]”, 7.74 ± 0.49.
The figure for “GGTATACACAAGTATACACACATATAAATATAAATA [CACACA_site7511]” is 7.53 ± 0.56.
Turning to “AATAACCACAGACACACACACATATAAATATAAATA [CACACA_site7631]”, the “gcPBM binding intensity (ln)” value worked out at 8.03 ± 0.33.
To “GTGATTAATATATACACACATACATATATATATATA [CACACA_site2817]” belongs 9.1 ± 0.2; to “ATATATATGTATACATGTACATATTTTATTATGTGC [XGTACX_site7207]”, 7.9 ± 0.61.
Regarding “GATAAAACGTTATGCACACGTACGTGAGTATTTATA [CACACA_site1570]”, the “gcPBM binding intensity (ln)” value amounted to 10.1 ± 0.3.
To “AACAAAACTTTGGATACATGCAAAATTTTTAAATGA [TGCATGCA_site249]” belongs 7.5 ± 0.86; to “AATGATAAATAAAAAGCATGCAACAAATAAAAATAA [TGCATGCA_site453]”, 7.94 ± 0.76.
